Laboratory results reported in PubChem BioAssay AID1240 (Sanford-Burnham Center for Chemical Genomics, 2008).
Screen size: about 50,000 compounds; about 800 (1.6%) showed an effect of 50% or more. This is one part of the list.

Each compound was assayed against Bcl-2-like protein 10 (Homo sapiens) (UniProt Q9HD36) (assay: Phenotype converters, Bcl-B/TR3 peptide binding displacement, primary biochemical FP (AID 1240;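 also: 0% = Bcl-B with tracer peptide and DMSO and 100% = tracer peptide lacking Bcl-B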)). Details: GST-Bcl-B / FITC-TR3 peptide fluorescence polarization; stronger effect = higher value; compound at 3.75 mg/L.
UniProt Q9HD36, sequence (Q9HD36 whole entry, looked up): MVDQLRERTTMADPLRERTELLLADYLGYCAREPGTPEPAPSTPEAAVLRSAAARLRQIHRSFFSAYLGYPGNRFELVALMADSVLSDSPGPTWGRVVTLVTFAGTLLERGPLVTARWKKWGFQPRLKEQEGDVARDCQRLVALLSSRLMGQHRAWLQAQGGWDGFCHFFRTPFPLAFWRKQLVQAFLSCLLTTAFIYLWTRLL

Row | SMILES | displacement
1 | C(=N\n1cnnc1)/c1cn[nH]c1-c1ccccc1 | -0.9%
2 | O=C(NCc1ccccc1Cl)/C(=C\c1cccc(Br)c1)NC(=O)c1ccccc1 | 4%
3 | Cc1ccc(NC(=O)c2cc(I)ccc2Cl)c([N+](=O)[O-])c1 | 8.7%
4 | COC(=O)CN1C(=O)/C(=C\c2cccc(O)c2)SC1=S | 0%
5 | CC1(C)CC(Cc2ccccc2)(C(=O)O)CCO1 (stereo not given) | -0.4%
6 | CCS(=O)(=O)c1nnnn1-c1ccccc1 | 9.4%
7 | COc1ccc(C(=O)NCc2ccccc2)cc1Br | -8.5%
8 | Cc1cc(C(=O)Nc2cccc3ccccc23)co1 | 18.6%
9 | COC(=O)c1cc(C(=O)N2CCCC2)cc([N+](=O)[O-])c1 | 12.7%
10 | O=C1c2ccc(-c3nc4ccccc4c(=O)o3)cc2C(=O)N1c1c[nH]c(=O)[nH]c1=O | 5.5%
11 | CC(C)(C)NCCCCOc1cccc(Cl)c1 | 4.2%
12 | Cc1nc2cc(Cl)ccc2n1CCO | -6.6%
13 | CCOC(=O)c1c(C)nc2ccccn12 | -2.1%
14 | CCCN1C(=O)/C(=C2\SC(N)=NC2=O)c2ccccc21 | 8.8%
15 | Cc1nc(Nc2nc3ccccc3o2)nc(C)c1C | 1.8%
16 | CCOc1ccccc1NC1=CC(=O)CC(c2ccccc2)C1 (stereo not given) | -8.1%
17 | O=C1/C(=C\c2cccs2)SC(=S)N1CCC(=O)N1CCCc2ccccc21 | 7.1%
18 | COc1ccccc1OCCSc1nc2ccc(Br)cc2[nH]1 | -3.5%
19 | CCOc1ccc(N(CC(=O)Nc2ccc(C)c(C)c2)S(=O)(=O)c2ccc(SC)cc2)cc1 | 7.2%
20 | Cc1nc2cc(N=Cc3ccccc3O)ccc2n1C | 12.7%
21 | CC/C(C)=N/NC(=O)c1[nH]c2ccc(C)cc2c1-c1ccccc1 | -14.6%
22 | CCOC(=O)c1ccc(NC(=O)c2cc(Cl)ccc2Cl)cc1 | 10.8%
23 | COc1ccc(NC(=O)C(=O)NCc2ccncc2)cc1Cl | 12.6%
24 | Cc1cc(OCC(O)CN2C(C)CCCC2C)ccc1C(C)C (stereo not given) | 2.4%
25 | Cc1ccccc1OCC(=O)Nc1cccc(F)c1 | 10.9%
26 | O=C(NCc1ccc(F)cc1)c1ccc(Br)cc1 | 6%
27 | O=C(CCCOc1ccccc1)Nc1ccc([N+](=O)[O-])cc1 | -8.3%
28 | CC(C)(C)c1ccc(S(=O)(=O)Nc2ccc(O)c(Cl)c2)cc1 | 12.2%

Row | SMILES | displacement
29 | O=C1NC(=O)N(c2ccccc2)C(=O)/C1=C\c1ccc(-c2ccc([N+](=O)[O-])cc2Br)o1 | -14.8%
30 | COc1ccc(CCNC(=O)C(=O)Nc2ccc(OC)cc2)cc1 | -111%
31 | CC(C)(C)c1ccc(OCC(=O)Nc2cccc([N+](=O)[O-])c2)cc1 | -0.9%
32 | Cc1cccc(OCC(=O)N2CCN(c3ccc([N+](=O)[O-])cc3)CC2)c1 | 2.5%
33 | COc1ccc(C2Nc3ccccc3C(=O)N2Cc2ccccc2)cc1CSc1ccccn1 (stereo not given) | 11.6%
34 | Cc1ccc(N=Cc2c(C)nn(-c3ccccc3)c2Sc2ccc(C)cc2)cc1 | 8.4%
35 | CCOc1ccc(N(CC(=O)Nc2ccc(OC)cc2OC)S(=O)(=O)c2ccccc2)cc1 | 1.7%
36 | O=C(Nc1ccccc1C(=O)NCCCn1ccnc1)c1ccccc1 | 83.5%
37 | Cc1ccc(C(=O)/C=C/Nc2ccc(Cl)c(Cl)c2)cc1 | 126%
38 | COc1cc(C=Nc2ccc(Nc3ccccc3)cc2)cc([N+](=O)[O-])c1O | 14.2%
39 | CCc1ccc(NC(=O)c2nn3c(c2Br)NC(c2ccccc2)CC3C(F)(F)F)cc1 (stereo not given) | 7.7%
40 | CC(=O)C1C(=O)c2cc([N+](=O)[O-])ccc2C1=Nc1ccccc1C (stereo not given) | 12.1%
41 | CCOC(=O)c1c(NC(=O)c2cccc(Cl)c2)sc(C(=O)Nc2cccc(C(F)(F)F)c2)c1C | -3.3%
42 | C=CCOc1ccc(C(c2c(C)[nH]n(-c3ccccc3)c2=O)c2c(C)[nH]n(-c3ccccc3)c2=O)cc1 | -1.5%
43 | O=c1c2c(nc3cc(-c4ccc(F)cc4)[nH]n13)CCCC2 | -5.8%
44 | Cc1ccc(C(=O)NCCCN2CCOCC2)c2ccccc12 | -1.8%
45 | COc1cc(C(=O)Nc2cccc(S(N)(=O)=O)c2)cc(OC)c1OC | 8.8%
46 | Cn1c(O)c(N=NC(=O)c2ccccc2NC(=O)c2ccccc2)c2ccccc21 | -4%
47 | Cc1cc(C)c(NC(=O)C(C)SCC(=O)Nc2ccccc2)c(C)c1 (stereo not given) | -10.7%
48 | CCOc1ccc(/C=C2/NC(=S)NC2=O)cc1Cl | -2.6%
49 | Cc1nc2cc(S(=O)(=O)N(C)C)ccc2n1-c1ccccc1 | 13.9%
50 | CC(C)NC(=O)COc1ccc(/C=N/NS(=O)(=O)c2ccccc2)cc1 | -9.8%
51 | CCn1c2ccccc2c2nnc(N/N=C/c3ccccc3O)nc21 | -9.1%
52 | CC(C)(C)NC(=O)CN1C(=O)/C(=C/c2ccccc2)SC1=S | 10.7%
53 | CCOC(=O)c1cn(CC)c2cc(Cl)c(-c3ccco3)c(Cl)c2c1=O | 9.8%
54 | O=C(O)C1CCCCC1C(=O)Nc1ccc(-c2ccccc2)cc1 (stereo not given) | -10.4%
55 | O=C1c2ccccc2C(=O)N1Cc1nc2ccccc2c(=O)n1CCCn1ccnc1 | 2.4%
